Measured values from PubChem BioAssay AID652106 (National Center for Advancing Translational Sciences (NCATS), 2013).
Screen size: about 370,000 compounds; about 500 (0.14%) were called active. Inconclusive results, whose numbers are uncertain, are shown with a selection of clear calls. The call rests on the fitted dose curve; in most records, active means well fitted activation curve with a large enough effect; inconclusive means small, poorly fitted or top-dose-only effect; inactive means no such curve, though single readings can be large or run the other way. Potencies beside an inconclusive call are fits to weak or partial responses and may not hold up.

Test: qHTS of alpha-syn Inhibitors; further: nearly all actives have a fitted effect of over 65% in size; on growth rescue (activation): % of control where 0% means no effect
Conditions: Yeast expressing alpha-synuclein, BacTiter-Glo, 24 h; Potency: growth rescue unless noted; growth rescue (activation): at 46.1 µM (top of the series) unless noted
In short: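 Readout is rescue of growth in alpha-synuclein-expressing yeast, so inhibitors of toxicity appear as activators. Growth after 24 hr at 30 deg C in galactose medium is quantified by luminescence.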
Potency means the concentration at half of the fitted maximal effect; tags describe the fitted curve by direction and shape.

Growth rescue (activation), inactive:
O=C(O)c1ccccc1NS(=O)(=O)c1cccc(C(F)(F)F)c1 13.5%, O=[N+]([O-])c1nn(-c2ccc(Cl)cc2)n(O)c1=NCc1ccccc1 15.8%, COc1ccc(CCNC(=O)C2CC(=O)N(c3ccccc3)C2)cc1OC (configuration not stated) 1.44%, CC(=O)N1N=C(c2cccc([N+](=O)[O-])c2)OC1c1cccc(Br)c1 (configuration not stated) -5.5%, CCOC(=O)c1cnc2ccc(C(=O)OC)cc2c1Nc1ccc(OCc2ccccc2Cl)cc1 -4.11%, CC(=O)Nc1cccc(-c2nnc(SCC(=O)c3cc([N+](=O)[O-])ccc3Cl)o2)c1 0.0285%, COc1ccc(Cl)cc1NC(=O)CN(C)C(=O)c1cc2c(F)cccc2s1 19.5%, COCCOC(=O)C1=C(C)NC(C)=C(C(=O)OC/C=C/c2ccccc2)C1c1cccc([N+](=O)[O-])c1 (configuration not stated) 20.9%, Cc1cc(NC(=O)C2CC=CCC2C(=O)O)ccc1NC(=O)c1ccccc1 (configuration not stated) -2.62%, O=C(Nc1cccc(S(=O)(=O)N2CCCCCC2)c1)C1CCN(C(=O)c2ccc(F)cc2)CC1 -3.63%, CCc1ccccc1N(CC(=O)N1CCCCC1)S(=O)(=O)c1ccccc1 9.49%, O=C(NCCN1CCC(n2c(=O)[nH]c3ccccc32)CC1)c1ccc(C(F)(F)F)cc1C(F)(F)F -0.0844%, CN1C(C)(C)c2ccccc2OS1(=O)=O -5.9%, Cc1ccc(C)n1C(CC(=O)O)c1ccc(C#N)cc1 (configuration not stated) -4.77%, Cc1ccc(C(=O)Nc2ncccc2C)cc1S(=O)(=O)N1CCCCC1 -0.468%, COc1cc(O)cc(O)c1C(=O)/C=C/c1ccccc1 12.2%, O=C(O)c1ccc(COc2ccc3ccccc3c2/C=C2/NC(=O)N(c3ccccc3)C2=O)cc1 -1.08%, Cc1cccn2c(=O)c3cc(C(=O)N4CCCC(C)C4)sc3nc12 (configuration not stated) 5.99%, C#CCOCCOCCOCCNc1nc(N2CCN(C(=O)CCCCCCCCCCNC(=O)Cn3cc(C[C@@H](C)O)nn3)CC2)nc(N2CCN(C(=O)CCCCCCCCCCNC(=O)[C@H](CO)n3cc(CCCSC)nn3)CC2)n1 -1.77%, C=CCC[C@H](Cc1ccc(F)cc1)C(=O)OC[C@@H](Cc1c[nH]c2ccccc12)NC(=O)[C@H](CC=C)CC(=O)NCCO -8.66%, CC(C)=N/N=C1/NC(=O)C(c2ccc(Cl)cc2)S1 (configuration not stated) 1.86%

Growth rescue (activation), inconclusive:
Cc1ccc(C)c(C(Nc2ccccc2)c2ccc3ccc(C)nc3c2O)c1 (configuration not stated) -37.1% [activator]

Potency, inconclusive:
Oc1ccccc1CN1CCN(C(c2ccccc2)c2ccccc2)CC1 35.5 µM [activator, single point], C(=C\c1ccnc2ccccc12)/c1ccc(-[n+]2cc[n+](-c3ccc(/C=C/c4ccnc5ccccc45)cc3)cc2)cc1 5.62 µM [activator, single point], Cc1cccc(OC(C)C(=O)N2CCc3ccccc3C2)c1 (configuration not stated) 3.16 µM [activator, full curve], COc1cc(O)c2c(=O)cc(-c3ccccc3)oc2c1 6.31 µM [activator, single point], COc1ccc(-n2c(=O)c3c(C)c(C)sc3n(Cc3cccc(F)c3)c2=O)c(OC)c1 35.5 µM [activator, partial curve], COc1ccc(C(=O)Nc2ccc(-c3nnn(CC(=O)N4CCN(C(=O)c5ccco5)CC4)n3)cc2)cc1 35.5 µM [activator, single point], CCOC(=O)Cc1nnc(NCc2ccccc2)c2ccccc12 3.16 µM [activator, single point], CC1Nc2ncnc(N3CCN(c4ccccc4)CC3)c2N(Cc2ccc(Br)cc2)C1=O (configuration not stated) 35.5 µM [activator, single point], S=C(NN=Cc1ccccn1)N(Cc1ccccn1)Cc1ccccn1 12.6 µM [activator, partial curve], COc1ccc(NC(=O)NNC(=O)COc2ccc3cc(Br)ccc3c2)cc1OC 3.55 µM [activator, single point], Cc1cccc2cc3c(N)c(C#N)sc3nc12 20 µM [activator, partial curve, poor fit], CCOC(=O)C(NCCc1ccc(F)cc1)(NC(=O)CC)C(F)(F)F (configuration not stated) 14.1 µM [activator, single point], O=C(Cc1cccc2ccccc12)NCCC1=CCCCC1 14.1 µM [activator, single point], COc1ccccc1-c1nn(CCC(=O)Nc2ccc(C)cc2)c2nc(C)cc(C)c12 15.8 µM [activator, single point], Cc1cccc(C)c1OCC(=O)N1CCc2ccccc2C1 35.5 µM [activator, single point], C#CC1(O)CCC2C3CCC4=C(CCC(=O)C4)C3CCC21C (configuration not stated) 12.6 µM [activator, partial curve], O=C(c1cnccn1)N1CCc2c([nH]c3ccccc23)C1c1cccc(Cl)c1 (configuration not stated) 11.2 µM [activator, single point], COc1ccc(C(C)C)cc1-c1cc(C(=O)NCc2cc(C(F)(F)F)cc(C(F)(F)F)c2)[nH]n1 5.62 µM [activator, single point], CCC(CC)C(=O)N(C)c1c(C)nc2c(OCc3cc(Cl)cc(Cl)c3)cccn12 35.5 µM [activator, single point], COc1ccc(Cn2c(CO)cnc2SCc2ccccc2)cc1 35.5 µM [activator, single point], COc1ccc(OC)c2c(/C=C/c3ccc(N(C)C)cc3)ccnc12 5.62 µM [activator, single point], CCCc1nc2c(sc3nc4c(cc32)COC(C)(C)C4)c(=O)n1Cc1ccco1 11.2 µM [activator, partial curve], CN(C)c1ccc(-c2ccnc3c2CC(C)(C(=O)NCc2ccccc2)O3)cc1 (configuration not stated) 14.1 µM [activator, single point], Cc1cccc(C(=O)NC(=S)NNC(=O)c2ccc(Cl)cc2)c1 12.6 µM [activator, partial curve], Cc1ccc(NC(=O)COc2ccc3oc4c(c3c2)CCCC4)c(C)c1 3.16 µM [activator, single point], COC(=O)[C@]12CCCCC=C1N(CCC1=CCCCC1)C(=O)[C@H](CC(=O)NCc1cccs1)C2 11.2 µM [activator, single point], Cc1c(C)c2ccc(OCC(=O)NCCc3c[nH]c4ccccc34)c(C)c2oc1=O 31.6 µM [activator, single point], Cc1cc(C)n2c(nc3ccccc32)c1C(=O)NN 5.01 µM [activator, single point], C=CCOc1ccc(C2/C(=C(\O)c3ccc4c(c3)OCCO4)C(=O)C(=O)N2CCCN2CCOCC2)cc1 (configuration not stated) 4.47 µM [activator, single point], CCCCN(C)C(=O)c1sc(=O)n(Cc2c(C)cccc2C)c1C 11.2 µM [activator, single point], CCN1CCCc2cc(CN(CCN3CCOCC3)C(=S)Nc3cccc(OC)c3)ccc21 5.62 µM [activator, single point], COc1cccc2sc3cc(NCc4ccc5c(c4)OCO5)ccc3c(=O)c12 12.6 µM [activator, partial curve], COc1ccc(OC)c(NC(=O)CN2C(=O)CC(c3ccco3)Sc3ccccc32)c1 (configuration not stated) 15.8 µM [activator, partial curve], CC1(c2cccc(Br)c2)NC(=O)N(CC(=O)c2ccc3c(c2)OCO3)C1=O (configuration not stated) 11.2 µM [activator, partial curve], CC(=O)Nc1ccc(NC(=O)CSc2nc(=O)n(Cc3cccnc3)c3c2CCC3)cc1 14.1 µM [activator, single point], Cc1cnc(C(=O)Nc2nnc(SCc3c(Cl)cccc3Cl)s2)cn1 22.4 µM [activator, single point], COc1ccc(CN(C(=O)c2ccc(-c3ccccc3)[nH]2)C(C(=O)NC(C)(C)C)c2ccncc2)cc1 (configuration not stated) 11.2 µM [activator, single point], NC(c1csc(Nc2ccccn2)n1)C1CCCCC1 (configuration not stated) 5.01 µM [activator, single point], O=C1c2c(-c3ccc(Br)cc3)noc2CCN1Cc1cn(-c2ccc(Cl)cc2)nn1 35.5 µM [activator, single point], CC(Oc1ccc(Cl)cc1)C(=O)NCCN1C(=O)S/C(=C\c2cccnc2)C1=O (configuration not stated) 20 µM [activator, single point], Brc1c(-c2ccccc2)nc2n1Cc1ccccc1-2 7.94 µM [activator, partial curve], COc1ccc(NC(=O)NCCCCc2ccccc2)c(OC)c1 20 µM [activator, single point]

Potency, active:
CCOc1cccc(NC(=O)C2CC(=O)N(C)C(=Nc3ccccc3)S2)c1 (configuration not stated) 20 µM, CC(C)(C)c1csc(NNC(=O)c2ccc(Cl)cc2)n1 17.8 µM, C[C@]12c3[nH]c4ccc(Cl)cc4c3CCN1C(=O)[C@@H](CC(=O)NCC13CC4CC(CC(C4)C1)C3)C[C@@H]2C(=O)N1CCCCC1 15.8 µM
